Out of some 48,000 compounds screened, about 120 (0.25%) were called active. Not shown: some 4% with an inconclusive outcome. Calls come from the whole dose curve; as a rule, active = well fitted activation curve with a large enough effect; inconclusive = small, poorly fitted or top-dose-only effect, or another doubt; inactive = no such curve, though single readings can be large or run the other way. Some of the results follow.

The test in a line: Primary qHTS for Identification of Small Molecule Activators of Huntingtin-Antisense Promoter Activity. Note: nearly all actives have a fitted effect of over 55% in size. The settings on record: HEK293 HTT-AS promoter firefly luciferase reporter, 24 h; series mostly up to 57.5 µM; activity change, positive = activation: at the top concentration. In a few lines: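 HEK293 cells carrying firefly luciferase reporters were seeded at 2,500 per well in Opti-MEM and cultured for 24 h. They were then treated with compounds at up to 57.5 uM final for 24 h at 37 degrees C before Dual-Glo luminescence readout.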
On the technique in general: qHTS replaces the single test concentration by a dilution series.
For the compound `COc1ccc(OCc2ccc(-c3nc(C#N)c(N4CCN(c5ccccc5)CC4)o3)o2)cc1`, the “activity change, positive = activation” value was inactive: -6.74%.

As to `Cc1cc(-c2ccc(C)c(S(=O)(=O)Nc3cccc(C)n3)c2)on1`, the “activity change, positive = activation” value is inactive: -21.6%.

For `Cc1ccc2c(c1)N(C(=O)N1CCC(C(=O)NCc3cccc(Br)c3)CC1)CCO2`, the “activity change, positive = activation” value is inactive: -26.6%.

Consider `O=C(CSc1oc(-c2ccccc2)nc1S(=O)(=O)c1ccc(Br)cc1)c1ccccc1`, for which the “activity change, positive = activation” value was inactive: -10.9%.

As to `C[N+](C)(C)CCCCCCCCCC[N+](C)(C)C`, the “activity change, positive = activation” value was inactive: -2.2%.

Consider `COc1ccc(C)cc1NC(=O)COc1cc(=O)n(C)c2ccccc12`, for which the “activity change, positive = activation” value was inactive: 1.71%.

With `COc1ccc(NC(=O)c2ccco2)cc1NC(=O)COc1cccc(C)c1C`, the “activity change, positive = activation” value was inactive: -22.3%.

In the case of `CCc1ccc(NC(=O)CN(C)S(=O)(=O)c2ccc3c(c2)c(=O)n(C)c(=O)n3C)cc1`, the “activity change, positive = activation” value is inactive: -4.65%.

With `CCOC(=O)c1cc2c(=O)n3ccccc3nc2n(Cc2ccco2)c1=NC(=O)c1ccc(Br)cc1`, the “activity change, positive = activation” value is inactive: -18.4%.

Take `Cc1ccc(NC(=O)c2nnn(Cc3ccccc3)c2N)cc1C`: the “activity change, positive = activation” value was inactive: 28.1%.

For the compound `CCN1CCN(CC(=O)Nc2ccc(-c3cccc4c(=O)cc(N5CCOCC5)oc34)c3sc4ccccc4c23)CC1`, the “activity change, positive = activation” value was inactive: -35.6%.

Consider `O=C(Nc1ccc(Br)cc1)c1ccc(F)c(S(=O)(=O)NC2CCCCCC2)c1`, for which the “activity change, positive = activation” value is inactive: -91.2%.

Take `Cc1ccccc1-c1nc(SCC(=O)NCc2ccc(F)cc2)c2c(=O)n(C)c(=O)n(C)c2n1`: the “activity change, positive = activation” value was inactive: -1.96%.

With `Cc1cn2c(=O)cc(COc3cccc(NC(=O)c4ccc(C(C)(C)C)cc4)c3)nc2s1`, the “activity change, positive = activation” value was inactive: 6.21%.

With `CCOC(=O)C1CCN(CC(=O)Nc2cc(C)c3c(=O)oc4ccccc4c3n2)CC1`, the “activity change, positive = activation” value was inactive: -11.3%.

`CCOc1ccc(NC(=O)c2c(C)nn(-c3ccc(F)cc3)c2-n2cccc2)cc1`: the “activity change, positive = activation” value is inactive: -8.58%.

Take `Cc1nn(-c2ccccc2)c2nc(C3CC3)cc(C(=O)Nc3ccc(F)cc3)c12`: the “activity change, positive = activation” value is inactive: -33.2%.

Turning to `N#CC(=C(N)Sc1ccc(N)cc1)c1ccccc1C(F)(F)F`, the “activity change, positive = activation” value was inactive: -10.5%.

Turning to `CCc1c(C)sc2c1CCN(Cc1ccccc1)C2c1ccccc1` (configuration not stated), the “activity change, positive = activation” value is inactive: -35.9%.

Regarding `O=C(Nc1ccc(OCc2cc(=O)n3c4c(sc3n2)CCCC4)cc1)c1cccc(F)c1`, the “activity change, positive = activation” value was inactive: -4.8%.

For `Cc1ccc(NC(=O)CN(C)S(=O)(=O)c2ccc3c(c2)n(C)c(=O)c(=O)n3C)cc1F`, the “activity change, positive = activation” value was inactive: -3.39%.

As to `COC(=O)c1sc2cccc(F)c2c1S(=O)(=O)N1CCN(c2cccc(OC)c2)CC1`, the “activity change, positive = activation” value is inactive: -30.7%.

Take `CCOC(=O)c1cc(-c2ccccc2)n(CCC(=O)NCc2ccccc2Cl)c1C`: the “activity change, positive = activation” value is inactive: -29.4%.

As for `COc1ccc(Nc2nc3ccccc3nc2NS(=O)(=O)c2ccc(C)cc2)c(OC)c1`, the “activity change, positive = activation” value was inactive: -12.6%.

For `CCN(CC)c1cc(C)c2cc(NC(=O)c3cccc(OC)c3OC)ccc2n1`, the “activity change, positive = activation” value was inactive: -6%.

Take `O=C(COc1ccccc1F)OCc1cc(=O)n2nc(C3CCCCC3)sc2n1`: the “activity change, positive = activation” value is inactive: 4.11%.

As for `COc1cccc2cc(S(=O)(=O)c3ccc(F)c(C)c3)c(=O)oc12`, the “activity change, positive = activation” value was inactive: 14.8%.

`O=C1Nc2ccccc2Oc2cc(Oc3cccc(Cl)c3)ccc21`: the “activity change, positive = activation” value was inactive: -19.8%.

For the compound `Cc1nc2nc(SCC(=O)N(C)Cc3ccccc3)nn2c(C)c1Cc1ccccc1Cl`, the “activity change, positive = activation” value is inactive: -1.23%.

Turning to `Fc1ccc(N2CCN(c3nc4ccccc4c4nc(-c5cccnc5)nn34)CC2)cc1`, the “activity change, positive = activation” value is inactive: -2.26%.

Regarding `CCCCN(C)CCNC(=O)C1CCCN(S(=O)(=O)c2cccc3nsnc23)C1` (configuration not stated), the “activity change, positive = activation” value is inactive: -14.7%.

Take `Cc1nnc(N2CCCC(C(=O)NCc3ccccc3)C2)c2nn(-c3ccccc3)c(C)c12` (configuration not stated): the “activity change, positive = activation” value was inactive: -9.22%.

As to `CCc1ccc(S(=O)(=O)c2cn(C)c3cc(N4CCOCC4)c(F)cc3c2=O)cc1`, the “activity change, positive = activation” value was inactive: -14.7%.

For the compound `Cc1c(Cl)cccc1-c1ccc(CNCCCSc2nnnn2C)o1`, the “activity change, positive = activation” value is inactive: -17.3%.

In the case of `Cc1ccn2c(Nc3ccccc3C)c(-c3ccc(N4CCOCC4)cc3)nc2c1`, the “activity change, positive = activation” value was inactive: -16.8%.

Turning to `CCCc1c2oc(C(=O)O)cc(=O)c2cc2c(=O)cc(C(=O)O)n(CC)c12`, the “activity change, positive = activation” value was inactive: -0.428%.

On to `Cc1ccccc1CCNC(=O)c1ccc(NC(=O)N2CC(C)Sc3ccccc32)cc1` (configuration not stated), for which the “activity change, positive = activation” value is inactive: -7.41%.

Turning to `O=C(COc1ccc(Cl)cc1)NCC(c1ccco1)S(=O)(=O)c1ccccc1` (configuration not stated), the “activity change, positive = activation” value was inactive: -20.9%.

In the case of `COc1ccccc1NC(=O)c1sc2nc3c(c(C(F)(F)F)c2c1N)CN(C(C)=O)CC3`, the “activity change, positive = activation” value was inactive: -4.11%.

Take `Cc1nn(-c2ccc(N3CCOCC3)nn2)c(C)c1CCC(=O)NCc1ccccc1`: the “activity change, positive = activation” value is inactive: -9.69%.

For `Cc1cc(C)c(NC(=O)CSc2n[nH]c(-c3ccccc3Cl)n2)c(C)c1`, the “activity change, positive = activation” value was inactive: -25%.

On to `Cc1ccc(C)c(Nc2nnc(-c3ccc(C)c(S(=O)(=O)N4CCN(C)CC4)c3)c3ccccc23)c1`, for which the activity change, positive = activation was inactive: 2.4% [at 11.5 µM, percent change from vehicle, -100% = no light].

Take `CCc1ccc(NC(=O)C(=O)NCCc2csc(-c3cccc(F)c3)n2)cc1`: the “activity change, positive = activation” value was inactive: 0.614%.

As for `CCn1nc(C)c2c(-c3ccccc3)cc(=O)n(C(C)C(=O)Nc3cccc(F)c3)c21` (configuration not stated), the “activity change, positive = activation” value was inactive: -26.1%.

For the compound `CCC(Sc1ncc(S(=O)(=O)c2ccc(C)cc2)c(=O)[nH]1)C(=O)Nc1cc(C)ccc1C` (configuration not stated), the “activity change, positive = activation” value is inactive: -17%.

Regarding `CCc1ccc(NC(=O)CN2CCN(C3CCCCC3)C(=O)C2=O)cc1`, the “activity change, positive = activation” value is inactive: -3.29%.

`O=C(Cn1cc(SCc2ccc(Br)cc2)c2ccccc21)N1CCCCC1`: the “activity change, positive = activation” value was inactive: 1.7%.

For the origin of these results see PubChem BioAssay AID1508624 (National Center for Advancing Translational Sciences (NCATS), 2021).
